According to the supplement of paper PMC7125110:
± gives the standard error. Variants at the floor of the assay are shown more often than the library holds them.

B1: glmS ribozyme (parent)
chain: AUAAAAGCGCCAGAACUACAGAAAUGUAGUUGACGAGGAGGAGGUUUAUCGAAUUUUCGGCGGAUGCCUCCAAA

Tests used:
Details in all cases: with glucosamine-6-phosphate
glucosamine-6-phosphate [1] = variants of: B1; assay: self-cleavage kobs at 640 uM GlcN6P; higher = faster cleavage; RNA array
How it was run: (§1)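 Barcoded ribozyme variants on sequenced MiSeq chips were transcribed in situ by E. coli RNA polymerase and followed at 37 °C through a hybridised Cy3 probe. Glucosamine-6-phosphate at 40 μM to 10 mM in HEPES/KCl/Mg(OAc)2 buffer was flowed in, and tiles were imaged over ~14 h. Signals were normalised to baseline and to non-cleaving reference variants, and per-tile medians were fit to one- or two-exponential decays to give kobs. Weighted Michaelis–Menten fits across concentrations gave kcat and KM.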

glucosamine-6-phosphate [2] = variants of: B1; assay: self-cleavage kobs at 160 uM GlcN6P; higher = faster cleavage; RNA array
How it was run: as §1

glucosamine-6-phosphate [3] = variants of: B1; assay: self-cleavage kobs at 2500 uM GlcN6P; higher = faster cleavage; RNA array
How it was run: as §1

glucosamine-6-phosphate [4] = variants of: B1; assay: self-cleavage kobs at 10000 uM GlcN6P; higher = faster cleavage; RNA array
How it was run: as §1

Variant | self-cleavage kobs at 640 uM GlcN6P (glucosamine-6-phosphate [1]) | self-cleavage kobs at 160 uM GlcN6P (glucosamine-6-phosphate [2]) | self-cleavage kobs at 2500 uM GlcN6P (glucosamine-6-phosphate [3]) | self-cleavage kobs at 10000 uM GlcN6P (glucosamine-6-phosphate [4])
G7U G13U A14U A48G U54A | < 1e-05 s⁻¹ | < 1e-05 s⁻¹ | < 1e-05 s⁻¹ | 
G7U C11G U31C | < 1e-05 s⁻¹ |  | < 1e-05 s⁻¹ | 
C8A A53U U55G | < 1e-05 s⁻¹ | < 1e-05 s⁻¹ |  | 
G7C G13U A15U G43U U55A C68U | < 1e-05 s⁻¹ |  | < 1e-05 s⁻¹ | 
C8G A14G A15U G41C U47G U56A | < 1e-05 s⁻¹ | < 1e-05 s⁻¹ | < 1e-05 s⁻¹ | 
C8A G13U A15G A33C | < 1e-05 s⁻¹ | < 1e-05 s⁻¹ | < 1e-05 s⁻¹ | 
G7U G9U U30G | < 1e-05 s⁻¹ |  | < 1e-05 s⁻¹ | 
C8G A14C G32C G41A G62U | < 1e-05 s⁻¹ |  | < 1e-05 s⁻¹ | 
G7U G40C U49A | < 1e-05 s⁻¹ |  |  | 
G7C U56A | < 1e-05 s⁻¹ | < 1e-05 s⁻¹ | < 1e-05 s⁻¹ | < 1e-05 s⁻¹
G7C G43C G59C C71G | < 1e-05 s⁻¹ | < 1e-05 s⁻¹ | < 1e-05 s⁻¹ | 
G7U A12U G41U G51A | < 1e-05 s⁻¹ | < 1e-05 s⁻¹ | < 1e-05 s⁻¹ | 
G7U C8A G13C C16U | < 1e-05 s⁻¹ |  |  | 
G7C G9U C10U A39G G44A | < 1e-05 s⁻¹ | < 1e-05 s⁻¹ |  | 
C8A G43C C61A | < 1e-05 s⁻¹ |  |  | 
C8A C16A G41C U49A U65A C70G | < 1e-05 s⁻¹ |  | < 1e-05 s⁻¹ | 
C8A G21U A39G | < 1e-05 s⁻¹ |  |  | 
C8A G26U A42U | < 1e-05 s⁻¹ |  |  | 
G7C C67A | < 1e-05 s⁻¹ | < 1e-05 s⁻¹ | < 1e-05 s⁻¹ | < 1e-05 s⁻¹
C8A A33U G35A | < 1e-05 s⁻¹ | < 1e-05 s⁻¹ | < 1e-05 s⁻¹ | 
C8A G9C U30G G38A | < 1e-05 s⁻¹ |  |  | 
C8A C50U | < 1e-05 s⁻¹ | < 1e-05 s⁻¹ | < 1e-05 s⁻¹ | < 1e-05 s⁻¹
G7U C61U C68G | 0.00114 ± 0.00049 s⁻¹ |  |  | 
C8A A53G C58A | < 1e-05 s⁻¹ |  | < 1e-05 s⁻¹ | 
G7C U49A A52C G62A U69A | < 1e-05 s⁻¹ |  |  | 
G7U G29U | < 1e-05 s⁻¹ | < 1e-05 s⁻¹ |  | 
G7U A33G U54C | < 1e-05 s⁻¹ |  |  | 
G7U G59A | < 1e-05 s⁻¹ | < 1e-05 s⁻¹ | < 1e-05 s⁻¹ | < 1e-05 s⁻¹
